According to the supplement of paper PMC10126150:
Values marked as one replicate rest on one cluster of the flow cell; about a third of the high ones do not repeat.

System: ATP
Assay: switch fluorescence ratio, 500 uM ATP over buffer (Cy3 cluster intensity, sum of 5 cycles each) (fold (ratio)); higher = stronger signal-on switching upon ATP binding; sequences stand for … in TCGTCGGCAGCGTCAGATGTGTATAAGAGACAGTTTTTTTTTTTTTTTTTTTTTTTTT…TC
Conditions: aptamer strand: ATP DNA aptamer (quencher-CACCTGGGGGAGTATTGCGGAGGAAGG + anchor), 100 nM annealed; ATP concentration: 500 uM; one replicate
Procedure, shortened: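 Five buffer/ATP imaging cycles were run on Cy3-labelled switching-strand clusters on a modified Illumina MiSeq flow-cell, with NaOH stripping and re-annealing between cycles. In each cycle, clusters annealed to 100 nM quencher-labelled ATP aptamer were imaged in selection buffer, then after 15 min with 500 uM ATP at 22 °C. Per cluster, the fluorescence ratio is summed target-cycle over summed buffer-cycle Cy3 intensity, averaged per switch-domain sequence. Only clusters within 100-1000 RFU were kept.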
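Further: ATP exposure 15 min at 22 °C before imaging.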

ACTTAACTAA showed a switch fluorescence ratio of 1.13.
CCAGGATGGA gave a switch fluorescence ratio of 1.02.
Work on TACATCCAGG yielded a switch fluorescence ratio of 2.07.
Sequence CAAAGGCCAT has a switch fluorescence ratio of 1.02.
Work on GATGTAATCG yielded a switch fluorescence ratio of 1.03.
Work on GTTGATCAAG yielded a switch fluorescence ratio of 0.96.
Sequence TGAATAAAGG has a switch fluorescence ratio of 0.972.
GTCCACGGGG was tested, and the switch fluorescence ratio was 1.05.
GCCTATACTT showed a switch fluorescence ratio of 1.01.
Work on TATTTGTCGA yielded a switch fluorescence ratio of 1.04.
TCGCTTTTAA showed a switch fluorescence ratio of 1.08.
For TTTCGAGTAA, the switch fluorescence ratio was 0.993.
GGAATTAGGA showed a switch fluorescence ratio of 1.02.
GGCCCATGAT was tested, and the switch fluorescence ratio was 1.02.
Work on CCGAGTTGCT yielded a switch fluorescence ratio of 1.28.
ATGGGTTCTC showed a switch fluorescence ratio of 0.96.
With TCCCGCGTCC the switch fluorescence ratio was 2.48.
With GACCCTGGTG the switch fluorescence ratio was 1.6.
In the case of CTGTAATGCG, the switch fluorescence ratio is reported as 1.07.
Work on TTCCTGTTG yielded a switch fluorescence ratio of 1.03.
In the case of TTTCGCCGC, the switch fluorescence ratio is reported as 1.06.
TTTCAGCCCT gave a switch fluorescence ratio of 1.04.
CATCCCCTTT was tested, and the switch fluorescence ratio was 1.07.
In the case of AGGCTGTCGC, the switch fluorescence ratio is reported as 1.02.
CTTGAGAGGG showed a switch fluorescence ratio of 0.963.
Work on CTTTATACGT yielded a switch fluorescence ratio of 1.05.
CGCGCGCCGA gave a switch fluorescence ratio of 1.02.
GGTATCAGGT gave a switch fluorescence ratio of 0.981.
With ATGGCAAGAT the switch fluorescence ratio was 1.1.
TATCATT gave a switch fluorescence ratio of 0.938.
CCCAGCGCGA showed a switch fluorescence ratio of 2.3.
With CGCTTGGGGG the switch fluorescence ratio was 1.01.
Work on AATCCACAGA yielded a switch fluorescence ratio of 1.04.
TGAGAGCT showed a switch fluorescence ratio of 1.07.
For TAACCTTACA, the switch fluorescence ratio was 1.42.
GAGTGATTTG was tested, and the switch fluorescence ratio was 1.02.
For CACTCAGGGG, the switch fluorescence ratio was 1.32.
TAAATATTAA was tested, and the switch fluorescence ratio was 0.977.
CTAGCTTGGT gave a switch fluorescence ratio of 1.
GTGTCTCTAT gave a switch fluorescence ratio of 1.03.
TAAGCCGCGC showed a switch fluorescence ratio of 1.
With ACTACGGCTT the switch fluorescence ratio was 1.06.
For CGCCATCGAA, the switch fluorescence ratio was 1.01.
With TGCTGAGTCA the switch fluorescence ratio was 0.964.
For TGGCAACTGT, the switch fluorescence ratio was 1.01.
In the case of TTGGAGTC, the switch fluorescence ratio is reported as 0.902.
For TTCGGTAGAG, the switch fluorescence ratio was 0.991.
In the case of GTACGTTTTT, the switch fluorescence ratio is reported as 0.958.
ATCGGTTAAT showed a switch fluorescence ratio of 0.998.
ATTGTTGC was tested, and the switch fluorescence ratio was 1.01.
TTCCGTAATC gave a switch fluorescence ratio of 4.88.
AGGTCGTTCA showed a switch fluorescence ratio of 0.983.
For GGAGTGCCCT, the switch fluorescence ratio was 0.998.
TCAACACGGT gave a switch fluorescence ratio of 1.02.
With CTTAACTGAA the switch fluorescence ratio was 0.987.
Work on GGGGGGTAC yielded a switch fluorescence ratio of 1.37.
ATTTGGAAAT was tested, and the switch fluorescence ratio was 0.984.
Work on GGCGATAAGA yielded a switch fluorescence ratio of 0.98.
Work on CGTTTCAGAG yielded a switch fluorescence ratio of 0.994.
Work on TGGTGCGCGA yielded a switch fluorescence ratio of 1.02.
Work on GGAGAAATAA yielded a switch fluorescence ratio of 0.987.
In the case of CAAGTTAAGA, the switch fluorescence ratio is reported as 0.965.
GGAGGCCGG showed a switch fluorescence ratio of 1.09.
For TGGATATGGC, the switch fluorescence ratio was 0.926.
AGGTGATGAC showed a switch fluorescence ratio of 1.02.
In the case of CTGGAAAGAT, the switch fluorescence ratio is reported as 0.987.
In the case of TCACTTGCA, the switch fluorescence ratio is reported as 1.03.
Work on GGGAAATTCT yielded a switch fluorescence ratio of 1.05.
GTTGGAGT showed a switch fluorescence ratio of 0.975.
Sequence CATTCGTACT has a switch fluorescence ratio of 1.11.
TGAGGTAAGT showed a switch fluorescence ratio of 1.01.
Work on TACACGCGGC yielded a switch fluorescence ratio of 1.17.
For AAGAATAGTT, the switch fluorescence ratio was 0.989.
GGCAATTCCT was tested, and the switch fluorescence ratio was 1.16.
In the case of GCCTATAGTT, the switch fluorescence ratio is reported as 0.964.
Work on AGGTTAAGAA yielded a switch fluorescence ratio of 0.954.
ACCGTGCTAC showed a switch fluorescence ratio of 2.05.
Work on TCGTATAATA yielded a switch fluorescence ratio of 0.972.
For CGCGGGATTT, the switch fluorescence ratio was 0.989.
For GCGAATCAAT, the switch fluorescence ratio was 1.05.
With GTATATAGAG the switch fluorescence ratio was 1.01.
With GAAGCCGCA the switch fluorescence ratio was 1.15.
In the case of TCGAACAGTG, the switch fluorescence ratio is reported as 1.01.
Sequence GGTCTATGCT has a switch fluorescence ratio of 0.984.
TCTTGGTCTA gave a switch fluorescence ratio of 0.954.
Sequence GCACGGACCG has a switch fluorescence ratio of 1.01.
CCAAGGACAA showed a switch fluorescence ratio of 1.15.
AATGGGTA was tested, and the switch fluorescence ratio was 1.
GATTGTTTGA was tested, and the switch fluorescence ratio was 1.02.
For TAACTGAAA, the switch fluorescence ratio was 0.943.
TTCCCAAGTC showed a switch fluorescence ratio of 1.16.
In the case of ACGAGTCATA, the switch fluorescence ratio is reported as 1.03.
ACCCAGAGGA was tested, and the switch fluorescence ratio was 1.04.
For ACCACGGAGG, the switch fluorescence ratio was 1.03.
ACGGCGATG gave a switch fluorescence ratio of 0.987.
AAACAGGCTC gave a switch fluorescence ratio of 1.02.
TGTCGGGCGA gave a switch fluorescence ratio of 0.992.
Sequence GCCTGTTTGC has a switch fluorescence ratio of 1.
GGGGGTGGT was tested, and the switch fluorescence ratio was 0.987.
Work on TAGGTCTATC yielded a switch fluorescence ratio of 0.963.
For ATTAGCCGCA, the switch fluorescence ratio was 1.09.
GGGCAAACGT gave a switch fluorescence ratio of 1.07.
TCTGACTGAG showed a switch fluorescence ratio of 1.
In the case of GGGTTCTGAA, the switch fluorescence ratio is reported as 0.974.
Work on TTACGAGTCC yielded a switch fluorescence ratio of 1.03.
With GAGGTGCGAA the switch fluorescence ratio was 1.01.
For TATTATCGGG, the switch fluorescence ratio was 0.948.
ACATATATTG gave a switch fluorescence ratio of 0.975.
ATCATGCAGT was tested, and the switch fluorescence ratio was 0.953.
TATTGCCTAA was tested, and the switch fluorescence ratio was 0.961.
Sequence GGTTGAATCT has a switch fluorescence ratio of 0.981.
TTGTGTTGAA was tested, and the switch fluorescence ratio was 1.01.
ATTGAGCACT showed a switch fluorescence ratio of 1.05.
Work on TTGTGGGA yielded a switch fluorescence ratio of 0.999.
CTGCGTCAGA gave a switch fluorescence ratio of 0.989.
Work on AAAGACCATG yielded a switch fluorescence ratio of 1.09.
GAATTCGTAA gave a switch fluorescence ratio of 1.06.
In the case of GGGATGCCAG, the switch fluorescence ratio is reported as 1.03.
In the case of TACTCGCTAT, the switch fluorescence ratio is reported as 1.93.
For TGTTGTAAGG, the switch fluorescence ratio was 1.06.
Sequence GTAACAGGGC has a switch fluorescence ratio of 1.04.
In the case of TGCGGTTTAC, the switch fluorescence ratio is reported as 1.07.
For GATATGGCCA, the switch fluorescence ratio was 1.03.
With GCTTTGTTGT the switch fluorescence ratio was 0.951.
CCTAGCGAAA gave a switch fluorescence ratio of 1.43.
Work on CTGAGGGTGC yielded a switch fluorescence ratio of 1.01.
For AGTAGGGAAT, the switch fluorescence ratio was 1.02.
For ACGCCCCAA, the switch fluorescence ratio was 1.27.
TCAGCTTGTA showed a switch fluorescence ratio of 1.
In the case of AGTCGATCCC, the switch fluorescence ratio is reported as 0.994.
Sequence CTCAGTCCTT has a switch fluorescence ratio of 0.979.
GGATATTAAT was tested, and the switch fluorescence ratio was 1.03.
In the case of CAGGAATTGA, the switch fluorescence ratio is reported as 1.
GATTTAGTGT was tested, and the switch fluorescence ratio was 0.984.
ATTGTGGCTG gave a switch fluorescence ratio of 1.03.
Sequence TCACAGTGTA has a switch fluorescence ratio of 1.01.
Sequence GGGATCGGCA has a switch fluorescence ratio of 0.991.
With TCATAAAG the switch fluorescence ratio was 1.02.
In the case of CGTTTCTTTC, the switch fluorescence ratio is reported as 1.04.
Work on AACCTGGTTG yielded a switch fluorescence ratio of 1.06.
In the case of CGTGCTATTA, the switch fluorescence ratio is reported as 1.02.
Work on ATAATGAC yielded a switch fluorescence ratio of 1.04.
GATCCACTAG gave a switch fluorescence ratio of 0.991.
TGAGTCTTTA gave a switch fluorescence ratio of 0.961.
TCACAGTTAT showed a switch fluorescence ratio of 1.03.
In the case of GCACGCCACA, the switch fluorescence ratio is reported as 1.52.
TTCTAAGACT gave a switch fluorescence ratio of 1.06.
For CTGACAGAAA, the switch fluorescence ratio was 2.28.
For TACTTTCTGT, the switch fluorescence ratio was 1.01.
ACGGCATAGT showed a switch fluorescence ratio of 1.1.
TTGACGCCGA showed a switch fluorescence ratio of 0.989.
For TACAGTAACA, the switch fluorescence ratio was 1.12.
Sequence TCGGGGAT has a switch fluorescence ratio of 1.01.
With TCAAGAGTGC the switch fluorescence ratio was 1.02.
Sequence TCGTGGTCAT has a switch fluorescence ratio of 0.989.
Work on AACGGAAACG yielded a switch fluorescence ratio of 1.03.
AAGAATCCGG gave a switch fluorescence ratio of 0.997.
AGAGTCCCAA was tested, and the switch fluorescence ratio was 1.06.
For TAAAATTTTC, the switch fluorescence ratio was 1.04.
TTCAAGCTTC showed a switch fluorescence ratio of 1.04.
In the case of AGTGAAGTCT, the switch fluorescence ratio is reported as 1.
Work on ACTCCAAATT yielded a switch fluorescence ratio of 1.24.
With CCGAATACAA the switch fluorescence ratio was 2.81.
In the case of GGATGCCGTG, the switch fluorescence ratio is reported as 1.
GGCTGGATAC showed a switch fluorescence ratio of 1.28.
For ACTCGGAATA, the switch fluorescence ratio was 2.39.
GACTTGGCTG gave a switch fluorescence ratio of 0.981.
GACATGGCGC showed a switch fluorescence ratio of 0.976.
With GGGGCTTTGA the switch fluorescence ratio was 0.999.
CCAAAGGCGA was tested, and the switch fluorescence ratio was 1.32.
Work on GCGGCGCTAA yielded a switch fluorescence ratio of 1.01.
CCCCCCCACG gave a switch fluorescence ratio of 1.78.
Sequence TACTAAAGC has a switch fluorescence ratio of 0.976.
AATTCAAGAT gave a switch fluorescence ratio of 0.985.
TACTATGAAT showed a switch fluorescence ratio of 1.02.
In the case of AATACGATTG, the switch fluorescence ratio is reported as 0.998.
For TCTTTGTGTT, the switch fluorescence ratio was 0.994.
CGGTCCACTC was tested, and the switch fluorescence ratio was 1.04.
Work on GATAGCTGCG yielded a switch fluorescence ratio of 1.04.
With CTCAGGAGAT the switch fluorescence ratio was 0.983.
In the case of CATCGGGGCA, the switch fluorescence ratio is reported as 1.01.
ACGGTGACAC showed a switch fluorescence ratio of 1.14.
CAGTGTCTTA gave a switch fluorescence ratio of 0.961.
GAGTCAGCGA gave a switch fluorescence ratio of 1.51.
Work on TGTGCGTAG yielded a switch fluorescence ratio of 0.976.
AATGGCGAAG gave a switch fluorescence ratio of 0.987.
CCTGGAAAAT was tested, and the switch fluorescence ratio was 1.04.
In the case of GTTACATATC, the switch fluorescence ratio is reported as 1.05.
Sequence CAGGCGCATC has a switch fluorescence ratio of 2.38.
ATCACTCGAG was tested, and the switch fluorescence ratio was 0.969.
ACCTTTCTAG showed a switch fluorescence ratio of 1.16.
Sequence CCGGTGTGTG has a switch fluorescence ratio of 0.959.
Work on ACGGAAAAGC yielded a switch fluorescence ratio of 1.14.
TTAGTGCGT gave a switch fluorescence ratio of 0.928.
Sequence ATGGTGGGA has a switch fluorescence ratio of 1.01.
Work on CTCACCGGTG yielded a switch fluorescence ratio of 1.39.
With GTCAGGAACG the switch fluorescence ratio was 0.933.
GGCCGTTGTT showed a switch fluorescence ratio of 1.
AGCTGGGATC gave a switch fluorescence ratio of 0.998.
With GTTGGCGGAA the switch fluorescence ratio was 0.961.
For GTTCCTGTTA, the switch fluorescence ratio was 0.97.
